According to the supplement of paper PMC12632987:
Whole data set: some 2,300 sequences, median “median log2 fold change of GCK-ALFA target abundance (FLAG IP / Myc IP barcode read proportion)” near 0.095, cut for the lowest 2% near -0.47. The list shows a part of the results.

B1: LC3A_28_1175 (protein)
chain: SELDKSIEKALAEAKEAAEKGEAAAVTITVPGTATEEEIEKVIKAIYEIAELLKGIPGAAIIVDIESGVSQENIDKLLEAGEEVEEKYPDVNVIFALDED
B2: LC3A_free_0_2095 (protein)
chain: KTTVVEVVMISDKEVSEEDVKKIKERLEKLAKEISKKYGAKVEVKVSKVDGRTVFTVKVKKEGLSIDEGLEIAREIADLLEEEAKELGIDATIYESVYYE
B3: LC3A_147_389 (protein)
chain: YIVNVDIDILTKNAEEEVIKSFEELKKELEKKGYKVKLEIETEKLDENTTYIDINITIEAPTLEKAEEAANLVLDHVDELEEKLKDKILGSLISVEIEEK
B4: LC3A_3_1451 (protein)
chain: GEELIEEAEKILKEFGRSEETIEAARELLEALKEKGYEEAMKTFVEELKKLKDVSSEIVLAMLKEIKHVVETEDLSEEEVVEVIKSEAAAAKSEQEIEEL
B5: LC3A_28_746 (protein)
chain: MTIAEQIAEAKAAAKAAAAAGESQVITITVPGTADQADIDRVIAGMKEIAEILKDVKDQAIVIDLDGQLPQEHQQRLMDAAEEIEKKYPNVTVIIALDEE
B6: LC3A_3_1739 (protein)
chain: MEEKLAKARKELEALGLSPEVVAAALKVVEALLKKGYEKAVEVLLKLLKELKDLPDEILLAMLDDILARVETEDLSEEEVIKYIKEEARIARSEAEIEEL
B7: LC3A_free_8_2505 (protein)
chain: MNQKVRDTAIKGLEELEKELVEKAKELGLSRLDILELELTIGSVIAEVFSLDDASPEEILETTKEGLEEIIELAKELSEELAELAKKKSEEILKELESLL
B8: LC3A_147_421 (protein)
chain: YKATVTVDLIVKGDAEEALAAIEELAKELLEKGADKVTIERERDEETGEIYVTVTIEATKETLEEAEAFANEVIDKFDELEERYSDKLKIGAISVEIEKA
B9: LC3A_28_1007 (protein)
chain: MSLIEKTKEEIKKALEQAEKGEDAFLEIEIPSTATKEEVEEVLKLIEEAAKEVSKLEGVKLYVVIDDSGSPEIHDLVVDRADEIEEKYPNVSVIIAYDDK
B10: LC3A_127_204 (protein)
chain: EEEELLKELLEKVEEASKYVDKIPEEGEEAREKAIELLEEAIKLAKKIPELKETVKDLEQALELVKKLKDLSPAEQEEAIDHILMILEGVAIEIESALLK
B11: LC3A_28_695 (protein)
chain: SALDAQLAAAAAAVAAAVAAGEDALVEFTVTGEATQEDIDRLLAGVEALAKQMAATGKLHVVVDLDGDVSQELQDRLADGLDALEAKYPHLSAVIALDED
B12: LC3A_3_1848 (protein)
chain: MEEIIEETLKLLEELGRSEEVIEAARRLLEELAKKGYLEAAKTLLEKLKELKDVSDEILLAMLEELLRKVTEENLSEEEAIKAIKEEARTALNESEIIEL
B13: LC3A_3_1765 (protein)
chain: MEEVVEAVRKRLAAAGADEETIKTAAEAVRLLLERGLEETAKKFVEALLELLAKSKELAADLAKEVLEILKTSKDSPEEIAKKVEEAIRVFLLEAEIEEL
B14: LC3A_free_46_2430 (protein)
chain: YVVEIDIDLLHEDKEVLEKAVKEIVEKIKEIAKKHNAEIKIEVEISKLEDGSYFARIKATVTVDTKETAEKIANEIIDAVDEIAEKYDVSYIISVEISEK
B15: LC3A_3_1537 (protein)
chain: MDEEIEETLEELREAGKSEETLEAFREAAELLKEKGYEEALRTFIEEMRKLIDLPDELLLDFAREVLELVKTEDISEEELIERIREIARTIRSEAEIEEL
B16: LC3A_free_39_2205 (protein)
chain: SEEAYKALEEELKKLEPYASKEAREAFLKAIREVGFSPEQIKAIAEELKKAKEAGADMEEILREAVKIIREGLAAGLSPEEIAKRVLEEIRDHINLIPLD
B17: LC3A_3_1556 (protein)
chain: MEELLEETLEELKAAGASEEVLEAAREAFEALRERGFEEAARTLAEEVREMLDLPDELLLDFLEEVRELVETEDLDEEEVRKEIRRIARTTRNEGEIIEL
B18: LC3A_28_650 (protein)
chain: MTIEEQLERALEEAERAREEGKPTVITLTVDGNATQEDIEKVIETMERIARILEDIPGSAIIVDVTGGVPQEYIDKLAEKGEEIEEKYPNVTVILALDEE
B19: LC3A_132_254 (protein)
chain: SEELLEKALKELKELLDKIVADLKAGKDPWPTINKLYELALKYAEKLSLEETEKLAEESEKYAEELFAKELDPNDEEARRTLDIVEMLLESVLIEKELRS
B20: LC3A_6_2066 (protein)
chain: KLYKITIDILLKSEKPEEALKVAKEIAEEIRKFAEEINKEYNGAVKKLEIKIEEIDGEVFLTIEIVAEEKAVNEIIDKVDEIVEENKEYVAASMISVEEL
B21: LC3A_127_194 (protein)
chain: ELKEVLERLIELARRAAELLDDPDADPEEVRRLLEELLEAAREAVKLDPSTQPLLDDAEEALALFEQLLAAPPEEREALREQLILLLDGIEIEAESKLLE
B22: LC3A_132_294 (protein)
chain: QEKKAEEILKKIKELIEKAKENIDDEEKVQKYLEEIEKLIKKAEKELTNEQLAKVMEEVEELLDELSRKFLEAGKEELAEEADGLRIEAASLRLRAEEKL
B23: LC3A_28_880 (protein)
chain: MTVEEALERAEREVEAAVAAGEEALVEVDISEPVTVEEAEELMRRLEELVELAAGLPRLSIVIDLSEVESQEALDIIADGAERLEERYPHVTVIIALADR
B24: LC3A_free_8_2552 (protein)
chain: DSQQFAQQVSAIIDQAEAQITAILTAAGADRLQQLDLELGFGEILAEVVSLSDKSKEEQVAAVTAGLAEVRELAKSLPPEAQAQVNAVIDQAEAEIKALL
B25: LC3A_3_1792 (protein)
chain: AEAEIEALLAELAAAGKSPETLEAVRRAATALAERGYEEALRTFLEELRRLRDAPDEILLWLAEEVLRLVEEEDLDEEELRERIRELARLAENEAEIEEL
B26: LC3A_28_831 (protein)
chain: SELEERIKKFLEEVKEAAEKGEEATFTLTIKSTDSLEEVKKAAEALKEAAKIASGKFNASIIIDLDGKIPQEKLDVLTDTADEVEKEYPNVNVIIALPEE
B27: LC3A_3_1682 (protein)
chain: MDELVEEVIKTAKENGLSEEALKALKKLLELLKERGFEEAIKTLLEELKKLKDIPSEIILAMFEDLLYLVETEDLSEEEIVEKIKEEAEIARNEKEIEEL
B28: LC3A_132_269 (protein)
chain: SEELLEEAKEELFALLDEIVALLAAGQDPWPAIKRLDEKAEEYAKKLSLEDTEELVEEAKAYAEERFAARLDPADAEARRVLDHVEMLLDSVLIEKELAD
B29: LC3A_28_731 (protein)
chain: SELEESIEKALKEAREAAARGEEAVITIKVPGTATEEDIEKVIETMEEIAEITKDLKSTSIIVDLDGKVPQEYIDKLLDRAEEIEKKYPNVTVILALDEE

Each binder was assayed against MAP1LC3A, Q9H492 (assay: median log2 fold change of GCK-ALFA target abundance (FLAG IP / Myc IP barcode read proportion) (log2 ratio); each designed protein is fused to an ALFA-tag nanobody in HEK293 cells to bring the named protein to FLAG-tagged glucokinase (GCK); Myc marks an untargeted standard; higher = target protein stabilised (more abundant)). Settings: target protein: 3xFLAG-MCP-GCK-ALFA reporter; HEK293 landing pad (RPLP).
Procedure, shortened: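 HEK293 landing-pad cells received a recombined binder library fused to the ALFA nanobody and were induced with 2 μg mL^−1 doxycycline, then transfected with a plasmid encoding a FLAG-tagged target and a Myc-tagged standard. Lysates were collected after 48 h for anti-FLAG and anti-Myc immunoprecipitation, and the circular RNA barcodes were reverse transcribed, amplified and sequenced. Target abundance for each binder is the median log2 ratio of FLAG to Myc barcode read proportions. Barcodes had to reach a proportion of at least 10^−7 in both replicates, each binder needed at least 3 barcodes per replicate, a pseudocount of 10^−6 was applied, and the two replicates were pooled.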

B1 and B2 are within 0.2 log units of each other in “median log2 fold change” value: -0.346 for the first, -0.251 for the second.

Compared with B3, B4 is higher in “median log2 fold change” value: -0.162 for the first, 0.4 for the second.

B5 and B6 are within 0.2 log units of each other in “median log2 fold change” value: 0.229 for the first, 0.29 for the second.

B7 and B8 are within 0.2 log units of each other in “median log2 fold change” value: -0.246 for the first, -0.0507 for the second.

Compared with B9, B10 is higher in “median log2 fold change” value: -0.353 for the first, 0.109 for the second.

First: B11
Second: B12
The “median log2 fold change” value of the first is higher: -0.089 for the first, -0.359 for the second.

Going from B13 to B14, the “median log2 fold change” value falls from 0.172 to -0.11.

First: B15
Second: B16
The “median log2 fold change” value of the first is higher: 0.354 for the first, 0.0943 for the second.

First: B17
Second: B18
The “median log2 fold change” value of the first is lower: -0.176 for the first, 0.152 for the second.

Compared with B19, B20 is higher in “median log2 fold change” value: -0.669 for the first, -0.173 for the second.

B21 and B22 are within 0.2 log units of each other in “median log2 fold change” value: 0.113 for the first, 0.0447 for the second.

Compared with B23, B24 is higher in “median log2 fold change” value: -0.0649 for the first, 0.158 for the second.

B25 and B26 are within 0.2 log units of each other in “median log2 fold change” value: 0.195 for the first, 0.0765 for the second.

B27 and B28 are within 0.2 log units of each other in “median log2 fold change” value: 0.0992 for the first, 0.0564 for the second.

In the case of B29, the “median log2 fold change” value is reported as -0.289.
